# From PubChem BioAssay AID1345083 (National Center for Advancing Translational Sciences (NCATS), 2018)
# Several values for one entry are separate records, joined by “and”; a condition that tells them apart may be missing. Equal entries are not always repeated. Screen size: about 94,000 compounds; about 6,200 (6.6%) were called active. The shares of active, inactive and inconclusive entries below differ from those in the screen. Calls come from the whole dose curve; as a rule, active = well fitted inhibition curve with a large enough effect; inconclusive = small, poorly fitted or top-dose-only effect; inactive = flat fitted curve, though single readings scatter. Potencies beside an inconclusive call are fits to weak or partial responses and may not hold up.
# Assay: Cytotoxic Profiling in HEK 293 Cell Line of Diverse Libraries Using Quantitative High-Throughput Screening; note: nearly all actives have a fitted effect of over 60% in size
# Details: HEK 293 viability, ATP luminescence (CellTiter-Glo), 48-72 h; activity change, negative = cytotoxicity: at 115 µM (top of the series) unless noted; series mostly up to 115 µM
# In short: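 qHTS cytotoxicity; HEK 293, 250 cells/well; compound pinned; 48 or 72 hr, 37 degree Celsius, 5% CO2, 95% humidity; CellTiter-Glo, 10 min RT; luminescence (ATP).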
# % is set by controls: 0 for no effect and ±100 for the full control effect; potency is the fitted concentration of half-maximal effect; tags give direction and shape of the fitted curve.
SMILES,Potency,"activity change, negative = cytotoxicity",outcome
Cn1ncc2c(C(=O)N3CCC(N4CCCCC4)CC3)cc(-c3ccccc3C(F)(F)F)nc21,"inconclusive: 89.1 µM [inhibitor, single point]",–,–
COCC1N(Cc2ccc(Oc3ccccc3)cc2)C2CCC1(O)CC2 (stereo not given),"inconclusive: 56.2 µM [inhibitor, partial curve, poor fit]",–,–
CC(C)(C)NC(=O)C1CCCN(C2CCN(C3Cc4ccccc4C3)CC2)C1 (stereo not given),–,inactive: -16.8%,–
Cc1ccc(-c2cccc(CN3CCCC3C(=O)NCC(C)C)c2)cc1Cl (stereo not given),active: 39.8 µM,–,–
CNC(=O)[C@@H]1C[C@H](Oc2cccnc2)CN1C(=O)c1noc(C)c1Cc1c(C)noc1C,–,–,inactive
Cn1ccc(NC(=O)[C@@H]2C[C@@H](c3ccc(F)cc3)N([S+](=O)([O-])c3ccccc3)C2)n1,"inconclusive: 100 µM [inhibitor, partial curve]",–,–
COc1cc(-c2ccnc3nc(-c4ccco4)nn23)cc(OC)c1OC,"inconclusive: 79.4 µM [inhibitor, single point]",–,–
COc1ccccc1-c1ncc2c(n1)OCCN(Cc1ccc(F)cc1F)C2=O,–,inactive: -35.1% [at 172 µM],–
Cc1ccc(S(=O)(=O)N(C)C(C)c2cccs2)cc1 (stereo not given),"inconclusive: 126 µM [inhibitor, single point]",–,–
COc1ccc(-c2cccc(C(=O)NCc3cccs3)c2)nn1,"inconclusive: 89.1 µM [inhibitor, single point]",–,–
O=C(NCc1cccs1)c1nc2sccn2c1-c1ccncc1,active: 89.1 µM,–,–
O=C(NCCNC(=O)c1cccc(-c2ccsc2)c1)c1ccc(C(F)(F)F)cc1,–,inactive: -28.3%,–
COc1ccccc1-n1c(=O)c(C(=O)N2CCN(C(=O)N(C)C)CC2)nc2cccnc21,–,–,inactive
O=C(Nc1cc(F)cc(F)c1)c1cnc(-c2ccc(F)cc2)nc1-c1ccncc1,active: 22.4 µM,–,–
O=C(c1[nH]ncc1Cl)N1CCOC(Cc2cccc(C(F)(F)F)c2)C1 (stereo not given),"inconclusive: 50.1 µM [inhibitor, partial curve, poor fit]",–,–
Cc1ccc(C(=O)N2CCCCCCn3c(nnc3-c3ccc(F)cc3)CC2)cn1,–,inactive: -1.64%,–
CCc1ccc(NC(=O)Cn2c(-c3ccc(F)cc3)nc(C)c(CCO)c2=O)cc1,"inconclusive: 89.1 µM [inhibitor, single point]",–,–
O=C(NC1CCCc2c1[nH]c1ccccc21)c1cccs1 (stereo not given),"inconclusive: 10 µM [inhibitor, full curve, poor fit]",–,–
CC(C)c1nc2c(c(-c3ccc(O)cc3)n1)CN(C(=O)C1CC1)CC2,"inconclusive: 126 µM [inhibitor, single point]",–,–
O=C(NC1CCN(c2ccnc3ccnn23)C1)c1cccc(Cl)c1 (stereo not given),–,inactive: -23.9%,–
CN1[C@@H](CCC(=O)Nc2ccccc2)CNC(=O)[C@@H]2[C@H]1CCN2Cc1csnn1,–,inactive: -3.27% [at 172 µM],–
C[C@@H](c1ccccc1)N(C)C(=O)c1cc(Cn2cnc3ccccc32)[nH]n1,"inconclusive: 50.1 µM [inhibitor, partial curve, poor fit]",–,–

SMILES,Potency,"activity change, negative = cytotoxicity",outcome
CNc1cc(C2CC(NS(=O)(=O)c3ccc(Cl)s3)C2)nc(N)n1 (stereo not given),"inconclusive: 56.2 µM [inhibitor, partial curve, poor fit]",–,–
O=C(c1cccc(Cl)c1)N1CCC(Cc2nc(-c3cnccn3)no2)CC1,–,inactive: -11.1%,–
Cc1nn(-c2ccc(C(C)C)cc2)c(C)c1[C@@H]1C=C[C@@H](NCc2cccc(C#N)c2)C1,active: 25.1 µM,–,–
COc1ccc(NC(=O)C2(C)CN(C)Cc3ccc(NCc4ccccc4)nc32)cc1 (stereo not given),"inconclusive: 126 µM [inhibitor, single point]",–,–
COc1ccc(CC(=O)N2CCN(C(=O)c3nc4cccnc4n(-c4ccccc4OC)c3=O)CC2)cc1,–,inactive: -2.14%,–
COC(=O)c1ccc(CN2C(=O)[C@@H]3C[C@@H](O)CN3C3(CN(C(C)C)C3)C2=O)cc1,–,–,inactive [at 172 µM]
O=C1COc2ccc(N3CCCC3)nc2CN1Cc1ccc(C(F)(F)F)cc1,active: 79.4 µM,–,–
COc1cc(=O)n2c(c1C(=O)Nc1ccc(C(C)C)cc1)CCCC2,"inconclusive: 89.1 µM [inhibitor, single point]",–,–
CN(C(=O)COc1ccc(F)cc1)C1CCc2nn(CC3CC3)c(=O)n2CC1 (stereo not given),–,inactive: -6.18%,–
Cc1noc(C)c1S(=O)(=O)N1CCC(c2noc(-c3ccncc3)n2)C1 (stereo not given),"inconclusive: 56.2 µM [inhibitor, single point]",–,–
Cc1ncc2n1C(=O)N(C1CCN(Cc3ccc(C(F)(F)F)cc3)CC1)C2,"inconclusive: 44.7 µM [inhibitor, partial curve, poor fit] and active: 35.5 µM",–,–
COc1ccc(F)c(-c2nc(CN3CCN(S(N)(=O)=O)CC3)c(C)o2)c1,"inconclusive: 100 µM [inhibitor, partial curve, poor fit]",–,–
Cc1cnc(C2CCC2)n1C1CCCN(C(=O)CCCc2ccccc2)C1 (stereo not given),"inconclusive: 79.4 µM [inhibitor, partial curve]",–,–
Cc1ccc(NC(=O)N2CCC(CCNC(=O)c3ccccn3)CC2)cc1F,"inconclusive: 39.8 µM [inhibitor, full curve, poor fit]",–,–
O=C(Nc1ccc(Cl)cc1)N1CCC(C(=O)N2CCC(N3Cc4ccccc4C3=O)CC2)CC1,"inconclusive: 50.1 µM [inhibitor, partial curve, poor fit]",–,–
CNC(=O)c1cc(C2CC2)nc2onc(C3CCCN(C(=O)N(C)C)C3)c12 (stereo not given),–,–,inactive
COc1cc(NC(=O)CCn2ccn3nc4c(c3c2=O)CCCC4)cc(OC)c1,"inconclusive: 89.1 µM [inhibitor, single point]",–,–
Cc1cccc(CN2CCCC3(CCN(c4nc5ccccc5o4)C3)C2=O)c1 (stereo not given),"inconclusive: 50.1 µM [inhibitor, partial curve, poor fit]",–,–
Cc1nn2c(c1-c1ccccc1N1CCCC1)N(C(=O)c1ccc(Oc3ccccc3)cc1)CCC2,"inconclusive: 56.2 µM [inhibitor, partial curve, poor fit]",–,–
O=C(c1cc(F)ccc1F)N1CCCN(CCc2ccccc2)c2ccccc21,"inconclusive: 10 µM [inhibitor, full curve, poor fit]",–,–
COc1ccc(C(=O)N2CCCN(C)c3ccccc32)c(OC)c1,"inconclusive: 44.7 µM [inhibitor, partial curve, poor fit]",–,–
COc1ccc(NC(=O)Cn2c(=O)n(-c3ccc(F)cc3)c(=O)c3c2cc(C)n3C)c(OC)c1,"inconclusive: 89.1 µM [inhibitor, single point]",–,–

SMILES,Potency,"activity change, negative = cytotoxicity",outcome
Cc1cc(C)c(CNC(=O)c2nc(-c3cncnc3)cc3c2ccn3C(C)C)c(=O)[nH]1,"inconclusive: 112 µM [inhibitor, partial curve, poor fit]",–,–
Cc1ccc(C(=O)N2CCC3(CC2)NC(=O)N(c2ccccc2)N3)cc1F,"inconclusive: 31.6 µM [inhibitor, full curve, poor fit]",–,–
COc1ccc(C(=O)Nc2ccc3n(c2=O)C[C@H]2C[C@@H]3CN(C(=O)CCCC(=O)O)C2)cc1,–,inactive: 3.08%,–
CC(=O)N1Cc2ccccc2CC2(CCCCN2Cc2ccccc2)C1 (stereo not given),"inconclusive: 79.4 µM [inhibitor, partial curve, poor fit]",–,–
Cc1oc2ccn(Cc3cccc(F)c3)c(=O)c2c1C(=O)N(C)Cc1ccccc1,"inconclusive: 50.1 µM [inhibitor, partial curve, poor fit]",–,–
O=C(c1ccn[nH]1)N1CC=C(c2cnc3cnc(-c4ccccc4)cn23)CC1,–,inactive: -20.6% [at 172 µM],–
Cc1cc(C(=O)NCc2ccncc2)c2c(C3CCNCC3)noc2n1,–,–,inactive
CC(C)Cc1cn(CC2CCCN(C(=O)c3ccc4c(c3)CCO4)C2)nn1 (stereo not given),"inconclusive: 35.5 µM [inhibitor, partial curve, poor fit]",–,–
CCOC(=O)c1cccc(NC(=O)N2CC[C@@H](CC(=O)Nc3nccs3)[C@@H](CC)C2)c1,"inconclusive: 50.1 µM [inhibitor, partial curve, poor fit]",–,–
Cc1cccc(N(C)c2ccc3nnc(-c4cc(C#N)ccn4)n3n2)c1,"inconclusive: 79.4 µM [inhibitor, partial curve]",–,–
O=C(CCC1CCCC1)N1CCCCCC1c1nc(-c2ccncc2)no1 (stereo not given),"inconclusive: 50.1 µM [inhibitor, partial curve, poor fit]",–,–
Cc1ccsc1C(=O)NCCc1noc(-c2ccccc2)n1,"inconclusive: 89.1 µM [inhibitor, single point]",–,–
O=C(CC1CCCCC1)N1CCC2(CC1)CC(N(Cc1ccc(F)cc1)C1CC1)CCO2 (stereo not given),active: 50.1 µM,–,–
COC1C(=O)N(CC2CC2)C12CCN(C(=O)c1cccs1)CC2 (stereo not given),–,–,inactive
COc1ccc(Nc2cnc3ccc(N4CCOCC4)nn23)cc1,"inconclusive: 112 µM [inhibitor, partial curve, poor fit]",–,–
CCc1nc2nccc(-c3ccc(Br)cc3)n2n1,"inconclusive: 70.8 µM [inhibitor, partial curve, poor fit]",–,–
CCOC(=O)c1ccc(NC(=O)c2c(OC)cc(=O)n3c2CCCC3)cc1,–,inactive: -1.97%,–
COc1ccccc1-c1ccc(CN2CCC(NC(=O)c3cccc(Cl)c3)C2)cc1 (stereo not given),active: 20 µM,–,–
COc1ccc(CN2CCCC(COc3ccccc3C(=O)NC3CC3)C2)c(OC)c1 (stereo not given),"inconclusive: 50.1 µM [inhibitor, partial curve, poor fit]",–,–
COc1ccc2[nH]c3c(c2c1)CCNC31CCN(C(=O)C(C)C)CC1,"inconclusive: 89.1 µM [inhibitor, single point]",–,–
CCC(CC)NC(=O)CN1C(=O)C(Oc2ccc(F)cc2)C12CCCCC2 (stereo not given),"inconclusive: 50.1 µM [inhibitor, partial curve, poor fit]",–,–
